Results published in PMC9381540, “USP21 promotes self-renewal and tumorigenicity of mesenchymal glioblastoma stem cells by deubiquitinating and stabilizing FOXD1” (Cell Death & Disease, 2022).
Results are given in words; binding and its absence hold for the method and conditions named. In cells and extracts the contact can be indirect. Some entries that bind do so weakly or less than the wild type. For part of these data: Sequences can lack the tags named with a protein. Blank lines part the entries; values can stand above or below the binder they belong to.

By UniProt entry, the sequences of proteins in these tests, tags left out.
UniProt Q92905: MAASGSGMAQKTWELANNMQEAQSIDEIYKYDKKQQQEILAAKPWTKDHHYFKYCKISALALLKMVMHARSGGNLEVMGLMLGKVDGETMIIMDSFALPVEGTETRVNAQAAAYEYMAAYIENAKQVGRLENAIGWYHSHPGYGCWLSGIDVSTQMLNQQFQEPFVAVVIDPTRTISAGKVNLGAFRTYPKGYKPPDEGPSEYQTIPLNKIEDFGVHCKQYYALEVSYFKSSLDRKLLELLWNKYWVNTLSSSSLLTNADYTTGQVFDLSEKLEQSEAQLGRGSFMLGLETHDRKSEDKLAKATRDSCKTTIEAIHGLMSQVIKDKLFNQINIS

Columns and labels:
[1] = target: T1, Flag-USP21 WT (ubiquitin-specific peptidase 21) (human) (UniProt Q9UK80); assay: co-IP; HEK293T cells expressing each of four DUBs (COPS5, SENP6, USP22, USP21); endogenous FOXD1; lysates immunoprecipitated overnight at 4 °C, protein A/G, immunoblot
T1 sequence: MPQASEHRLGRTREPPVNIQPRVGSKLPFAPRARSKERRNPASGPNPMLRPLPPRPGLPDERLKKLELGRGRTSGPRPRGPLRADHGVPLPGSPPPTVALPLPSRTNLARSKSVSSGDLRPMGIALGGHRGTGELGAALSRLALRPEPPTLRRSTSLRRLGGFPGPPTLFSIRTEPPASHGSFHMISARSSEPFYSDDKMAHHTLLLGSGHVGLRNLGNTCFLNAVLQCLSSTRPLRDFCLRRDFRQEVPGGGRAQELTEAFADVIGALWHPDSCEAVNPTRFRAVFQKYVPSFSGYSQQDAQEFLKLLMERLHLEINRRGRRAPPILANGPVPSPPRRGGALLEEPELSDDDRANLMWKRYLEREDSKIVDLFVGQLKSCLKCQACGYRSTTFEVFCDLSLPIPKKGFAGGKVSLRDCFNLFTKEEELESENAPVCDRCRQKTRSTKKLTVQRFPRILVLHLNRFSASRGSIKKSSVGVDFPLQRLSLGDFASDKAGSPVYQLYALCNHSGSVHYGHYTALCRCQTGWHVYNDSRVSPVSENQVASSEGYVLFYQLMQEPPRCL

COPS5 (human) = COPS5 (human) (UniProt Q92905); assay: as above
USP22 (human) = target: T2, USP22 (human) (UniProt Q9UPT9); assay: as above
T2 sequence: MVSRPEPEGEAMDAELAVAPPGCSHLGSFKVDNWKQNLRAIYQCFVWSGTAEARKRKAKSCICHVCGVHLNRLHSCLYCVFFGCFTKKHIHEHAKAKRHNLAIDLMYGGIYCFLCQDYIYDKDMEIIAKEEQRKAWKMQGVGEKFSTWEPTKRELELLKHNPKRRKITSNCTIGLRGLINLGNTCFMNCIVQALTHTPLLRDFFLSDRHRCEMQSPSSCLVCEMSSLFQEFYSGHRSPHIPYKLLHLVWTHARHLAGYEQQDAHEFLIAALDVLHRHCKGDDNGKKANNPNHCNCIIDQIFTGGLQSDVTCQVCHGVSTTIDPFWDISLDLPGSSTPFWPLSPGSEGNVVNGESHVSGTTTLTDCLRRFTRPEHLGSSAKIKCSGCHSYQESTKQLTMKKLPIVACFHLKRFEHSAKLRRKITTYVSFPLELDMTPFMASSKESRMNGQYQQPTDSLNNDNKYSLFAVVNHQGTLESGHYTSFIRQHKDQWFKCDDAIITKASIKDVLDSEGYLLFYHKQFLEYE

[2] = target: T1, Flag-USP21 WT (ubiquitin-specific peptidase 21) (human); assay: co-IP; HEK293T cells with Flag-USP21 WT or C221A and Myc-FOXD1; Flag immunoprecipitates blotted for Myc-FOXD1
[3] = target: T3, Flag-USP21 C221A (catalytically inactive mutant) (human) (UniProt Q9UK80); assay: as above
T3 sequence: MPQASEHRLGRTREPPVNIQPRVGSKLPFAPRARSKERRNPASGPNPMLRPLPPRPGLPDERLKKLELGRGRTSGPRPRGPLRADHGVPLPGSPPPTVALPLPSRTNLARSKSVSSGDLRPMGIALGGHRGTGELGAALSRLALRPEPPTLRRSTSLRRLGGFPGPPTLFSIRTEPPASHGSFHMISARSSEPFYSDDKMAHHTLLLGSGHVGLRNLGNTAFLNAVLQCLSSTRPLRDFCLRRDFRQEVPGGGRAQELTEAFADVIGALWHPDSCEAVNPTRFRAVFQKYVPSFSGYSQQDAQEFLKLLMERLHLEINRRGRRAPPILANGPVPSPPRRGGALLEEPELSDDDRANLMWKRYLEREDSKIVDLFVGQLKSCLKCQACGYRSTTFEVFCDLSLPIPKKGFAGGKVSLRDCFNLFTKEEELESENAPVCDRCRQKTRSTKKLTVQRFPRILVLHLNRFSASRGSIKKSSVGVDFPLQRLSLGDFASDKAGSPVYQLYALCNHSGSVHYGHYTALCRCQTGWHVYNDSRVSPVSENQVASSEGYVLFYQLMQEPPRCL

[4] = target: T4, endogenous USP21 (MES 21 and 505 GSCs) (human (endogenous in MES 21 and 505 GSCs)) (UniProt Q9UK80); assay: co-IP; reciprocal co-IP of endogenous USP21 and FOXD1 in MES 21 and 505 GSCs
T4 sequence: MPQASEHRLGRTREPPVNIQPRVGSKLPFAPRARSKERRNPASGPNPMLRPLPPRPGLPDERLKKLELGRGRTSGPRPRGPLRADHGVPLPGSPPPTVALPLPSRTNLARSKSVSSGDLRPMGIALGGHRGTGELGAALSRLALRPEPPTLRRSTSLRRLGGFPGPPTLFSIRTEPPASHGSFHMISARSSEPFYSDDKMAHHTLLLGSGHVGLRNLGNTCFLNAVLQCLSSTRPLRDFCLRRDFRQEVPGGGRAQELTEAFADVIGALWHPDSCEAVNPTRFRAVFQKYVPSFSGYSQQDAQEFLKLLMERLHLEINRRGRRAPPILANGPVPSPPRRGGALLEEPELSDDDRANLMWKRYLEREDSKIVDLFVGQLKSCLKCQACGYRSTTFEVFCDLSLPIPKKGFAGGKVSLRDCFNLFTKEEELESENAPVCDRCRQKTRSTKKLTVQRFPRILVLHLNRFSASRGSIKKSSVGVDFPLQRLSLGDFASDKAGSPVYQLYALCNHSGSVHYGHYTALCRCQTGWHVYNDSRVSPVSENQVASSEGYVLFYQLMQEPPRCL

binding [1]: binds
binding (COPS5 (human)): no binding
binding (USP22 (human)): no binding
B1: endogenous FOXD1 (HEK293T) (protein, UniProt Q16676 1-465)
chain: MTLSTEMSDASGLAEETDIDVVGEGEDEEDEEEEDDDEGGGGGPRLAVPAQRRRRRRSYAGEDELEDLEEEEDDDDILLAPPAGGSPAPPGPAPAAGAGAGGGGGGGGAGGGGSAGSGAKNPLVKPPYSYIALITMAILQSPKKRLTLSEICEFISGRFPYYREKFPAWQNSIRHNLSLNDCFVKIPREPGNPGKGNYWTLDPESADMFDNGSFLRRRKRFKRQPLLPPNAAAAESLLLRGAGAAGGAGDPAAAAALFPPAPPPPPHAYGYGPYGCGYGLQLPPYAPPSALFAAAAAAAAAAAFHPHSPPPPPPPHGAAAELARTAFGYRPHPLGAALPGPLPASAAKAGGPGASALARSPFSIESIIGGSLGPAAAAAAAAQAAAAAQASPSPSPVAAPPAPGSSGGGCAAQAAVGPAAALTRSLVAAAAAAASSVSSSAALGTLHQGTALSSVENFTARISNC

binding [2]: binds
binding [3]: binds
B2: Myc-FOXD1 (Forkhead box D1) (protein, UniProt Q16676 1-465)
chain: MTLSTEMSDASGLAEETDIDVVGEGEDEEDEEEEDDDEGGGGGPRLAVPAQRRRRRRSYAGEDELEDLEEEEDDDDILLAPPAGGSPAPPGPAPAAGAGAGGGGGGGGAGGGGSAGSGAKNPLVKPPYSYIALITMAILQSPKKRLTLSEICEFISGRFPYYREKFPAWQNSIRHNLSLNDCFVKIPREPGNPGKGNYWTLDPESADMFDNGSFLRRRKRFKRQPLLPPNAAAAESLLLRGAGAAGGAGDPAAAAALFPPAPPPPPHAYGYGPYGCGYGLQLPPYAPPSALFAAAAAAAAAAAFHPHSPPPPPPPHGAAAELARTAFGYRPHPLGAALPGPLPASAAKAGGPGASALARSPFSIESIIGGSLGPAAAAAAAAQAAAAAQASPSPSPVAAPPAPGSSGGGCAAQAAVGPAAALTRSLVAAAAAAASSVSSSAALGTLHQGTALSSVENFTARISNC

binding [4]: binds
B3: endogenous FOXD1 (MES 21 and 505 GSCs) (protein, UniProt Q16676 1-465)
chain: MTLSTEMSDASGLAEETDIDVVGEGEDEEDEEEEDDDEGGGGGPRLAVPAQRRRRRRSYAGEDELEDLEEEEDDDDILLAPPAGGSPAPPGPAPAAGAGAGGGGGGGGAGGGGSAGSGAKNPLVKPPYSYIALITMAILQSPKKRLTLSEICEFISGRFPYYREKFPAWQNSIRHNLSLNDCFVKIPREPGNPGKGNYWTLDPESADMFDNGSFLRRRKRFKRQPLLPPNAAAAESLLLRGAGAAGGAGDPAAAAALFPPAPPPPPHAYGYGPYGCGYGLQLPPYAPPSALFAAAAAAAAAAAFHPHSPPPPPPPHGAAAELARTAFGYRPHPLGAALPGPLPASAAKAGGPGASALARSPFSIESIIGGSLGPAAAAAAAAQAAAAAQASPSPSPVAAPPAPGSSGGGCAAQAAVGPAAALTRSLVAAAAAAASSVSSSAALGTLHQGTALSSVENFTARISNC
